# “And” between values parts separate entries of the source, which are not always exact repeats. Equal values may be shown once. Hit rate of the full screen: of about 280,000 compounds, about 1,100 (0.39%) were called active. The shares of active, inactive and inconclusive entries below differ from those in the screen. The call rests on the fitted dose curve; in most records, active means well fitted inhibition curve with a large enough effect; inconclusive means small, poorly fitted or top-dose-only effect, or effect the other way; inactive means flat fitted curve, though single readings scatter. A potency beside an inconclusive call is a rough fit, not a confirmed value.
# Target: Microtubule-associated protein tau (Homo sapiens) (UniProt P10636)
# Test: qHTS for Inhibitors of Tau Fibril Formation, Fluorescence Polarization; further: nearly all actives have a fitted effect of over 55% in size
# Settings: K18 P301L tau heparin fibrillization, Alexa594 FP, 6 h; series mostly up to 57.7 µM; activity, negative = inhibition: at the top concentration
# In short: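 K18 P301L tau (15 uM unlabeled/0.24 uM Alexa 594-labeled, final) + compound + heparin 20 uM final; 100 mM NaOAc pH 7; 6 hr 37 C; ThT 30 uM final added, 1 hr RT; FP ex 555/em 632 nm.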
# On the % scale 0 is the no-effect control and ±100 the full control effect; potency means the concentration at half of the fitted maximal effect; tags describe the fitted curve by direction and shape.
# UniProt P10636, sequence (P10636 whole entry, looked up): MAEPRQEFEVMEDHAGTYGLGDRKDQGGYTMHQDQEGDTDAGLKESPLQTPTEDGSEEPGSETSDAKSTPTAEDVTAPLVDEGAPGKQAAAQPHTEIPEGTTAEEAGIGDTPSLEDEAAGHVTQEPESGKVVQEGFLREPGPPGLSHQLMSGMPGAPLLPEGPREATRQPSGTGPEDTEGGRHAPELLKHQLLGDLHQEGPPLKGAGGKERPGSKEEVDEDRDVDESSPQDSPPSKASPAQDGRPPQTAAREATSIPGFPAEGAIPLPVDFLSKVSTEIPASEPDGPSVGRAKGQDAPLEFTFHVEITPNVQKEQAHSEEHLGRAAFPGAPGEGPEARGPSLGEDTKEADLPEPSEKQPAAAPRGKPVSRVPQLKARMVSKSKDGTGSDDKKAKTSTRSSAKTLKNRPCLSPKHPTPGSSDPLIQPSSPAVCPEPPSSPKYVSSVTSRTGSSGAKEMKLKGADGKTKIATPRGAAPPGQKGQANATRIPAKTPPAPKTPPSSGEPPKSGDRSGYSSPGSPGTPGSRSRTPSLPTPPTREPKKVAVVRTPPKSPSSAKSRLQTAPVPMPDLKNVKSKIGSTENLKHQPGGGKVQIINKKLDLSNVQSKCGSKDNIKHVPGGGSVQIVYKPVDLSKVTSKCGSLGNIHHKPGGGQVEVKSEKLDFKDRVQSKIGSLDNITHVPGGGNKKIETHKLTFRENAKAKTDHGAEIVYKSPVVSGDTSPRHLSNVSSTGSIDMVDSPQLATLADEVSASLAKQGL
SMILES,"activity, negative = inhibition",Potency
C=CCn1c(SCC(=O)c2cccs2)nc2sc(C)cc2c1=O,inactive: 0.0204%,–
Cc1occc1-c1nnc(SCC(=O)c2ccc(F)cc2)n1Cc1ccco1,–,"inconclusive: 44.7 µM [inhibitor, single point]"
Cc1ccc(-c2nn(CCC(=O)O)cc2CCC(=O)O)cc1,–,"inconclusive: 0.0398 µM [activator, full curve, poor fit]"
COc1ccc(OC)c(C(=O)COC(=O)C2CC3CCCC(C2)C3=O)c1 (stereo unspecified),inactive: -2.54%,–
Cc1onc(-c2c(Cl)cccc2Cl)c1C(=O)N/N=C(\N)COc1ccc(Cl)cc1,–,"inconclusive: 15.8 µM [activator, partial curve]"
CCOC(=O)c1nnn2c1nc(N1CCN(c3ccccc3)CC1)c1ccccc12,–,"inconclusive: 22.4 µM [activator, single point]"
CCN(c1ccccc1)S(=O)(=O)c1nnc(NC(=O)C(C)(C)C)s1,–,"inconclusive: 15.8 µM [inhibitor, partial curve]"
Cc1cc(N)c2cc(NC(=O)/C=C/c3ccccc3Cl)ccc2n1,–,"inconclusive: 0.0251 µM [activator, full curve, poor fit]"
Cc1cccc(C(=O)Nc2ccccc2C(=O)OCC(=O)Nc2ccc(C#N)cc2)c1,–,"inconclusive: 14.1 µM [inhibitor, partial curve]"
Cc1cccc(-c2nnn3c2nc(NCCc2ccc(S(N)(=O)=O)cc2)c2ccccc23)c1,–,"inconclusive: 3.98 µM [inhibitor, partial curve, poor fit] and inconclusive: 7.08 µM [inhibitor, partial curve]"
Cc1ccnc2nc(C(=O)OCCOc3cccc(Br)c3)nn12,inactive: -1.24%,–
Cc1cccc(NC(=O)c2cc(-c3ccc4c(c3)OCCO4)on2)c1,–,"inconclusive: 12.6 µM [inhibitor, partial curve]"
COCCNC(=O)C1CC2Cn3c(nc4ccccc43)C2N1C (stereo unspecified),inactive: 1.71%,–
CCCCC(=O)NC(c1ccc(OC)c(OC)c1)c1c(O)ccc2ccccc12 (stereo unspecified),–,"inconclusive: 11.2 µM [inhibitor, partial curve]"
CC(=O)N1CCC2(CC1)NC(=O)N(c1ccccc1)N2,inactive: 0.218%,–
COc1ccc(S(=O)(=O)N2CCN(c3ccc(Cl)c(Cl)c3)CC2)c2ccccc12,–,"inconclusive: 17.8 µM [inhibitor, single point]"
COc1ccc(C)cc1NC(=O)C1CCN(S(=O)(=O)c2ccc3c(c2)CCCN3C(C)=O)CC1,inactive: 5.51%,–
CCOc1cc(/C=C2/NC(=O)NC2=O)cc(Br)c1OCc1ccc(C(=O)O)cc1,inactive: -11.1%,–
Cc1cc(O)c2c(c1O)C(=O)C(O)=C(O)C2=O,–,active: 17.8 µM
Cn1c(C(C#N)C(=O)c2sc3ccccc3c2Cl)nc2ccccc21 (stereo unspecified),–,"inconclusive: 39.8 µM [inhibitor, single point]"
O=C(Cn1cnc2onc(-c3ccc(F)cc3)c2c1=O)Nc1ccc(F)c(Cl)c1,–,"inconclusive: 7.94 µM [inhibitor, partial curve]"
Cn1c(=O)n(C)c2cc([N+](=O)[O-])c(N3CCN(S(=O)(=O)c4ccc5ccccc5c4)CC3)cc21,–,"inconclusive: 17.8 µM [activator, single point]"

SMILES,"activity, negative = inhibition",Potency
CCOc1ccc(Cl)cc1S(=O)(=O)N1CCN(c2ccc(C)c(C)c2)CC1,–,"inconclusive: 35.5 µM [activator, single point]"
Cc1ccc2c(c1)c(CC(=O)Nc1ccc(C)c(F)c1)c(C(=O)O)n2C,–,"inconclusive: 35.5 µM [activator, single point]"
COc1cc(/C=C/c2nc(-c3ccccc3O)n[nH]2)cc(OC)c1OC,–,"inconclusive: 14.1 µM [inhibitor, partial curve]"
CCc1nc2ccccc2c(C(=O)Oc2cccc3cccnc23)c1C,–,"inconclusive: 20 µM [inhibitor, single point]"
COc1ccc2c(Sc3ccc(C)cc3)c(C(=O)NCCc3ccccc3)[nH]c2c1,–,"inconclusive: 14.1 µM [inhibitor, partial curve, poor fit]"
O=C(NCc1cn(-c2ccccc2)nc1-c1ccccc1)c1cc([N+](=O)[O-])cc([N+](=O)[O-])c1,–,"inconclusive: 8.91 µM [activator, partial curve]"
Cc1cc(C)c2nc(NNC(=O)c3ccc(S(=O)(=O)N4CCCCC4)cc3)sc2c1,–,"inconclusive: 31.6 µM [inhibitor, single point]"
CCCOc1ccc(Cn2c(O)cc(=O)[nH]c2=O)cc1,–,"inconclusive: 31.6 µM [inhibitor, partial curve, poor fit]"
Cc1cc(C)nc(/N=C2/NC(=O)CS2)n1,–,"inconclusive: 39.8 µM [inhibitor, single point]"
Cc1cc(C)c(O)c(-c2cc(C(=O)Nc3ccc(S(=O)(=O)N4CCOCC4)cc3)[nH]n2)c1,–,"inconclusive: 17.8 µM [inhibitor, partial curve]"
CCOC(=O)c1c(NC(=O)C(Sc2ccccc2)c2ccccc2)sc(C(N)=O)c1C (stereo unspecified),–,"inconclusive: 31.6 µM [inhibitor, single point]"
CNc1ccc(/C=C/C(=O)c2ccc3c(c2)OCCO3)cc1[N+](=O)[O-],inactive: 2.18%,–
O=C(COC(=O)C12CC3CC(CC(C3)C1)C2)Nc1nc2c(F)c(F)c(F)cc2s1,–,"inconclusive: 17.8 µM [inhibitor, single point]"
COc1cccc(NC(=O)c2sc3nc(C)c(C(=O)Nc4ccc(Cl)cc4)c(-c4ccc(Br)cc4)c3c2N)c1,–,"inconclusive: 35.5 µM [inhibitor, partial curve]"
O=C(NC(=S)Nc1ccc2c(c1)OCCO2)c1cccc2ccccc12,–,"inconclusive: 17.8 µM [inhibitor, partial curve]"
O=C(Nc1cccs1)NC1CCCC1,–,"inconclusive: 39.8 µM [inhibitor, single point]"
COc1ccc(C2C=C(c3cccs3)Nc3nc(CCCO)nn32)cc1 (stereo unspecified),–,"inconclusive: 44.7 µM [inhibitor, single point]"
CC(C)NC(=S)NCc1cccs1,inactive: -5.49%,–
Oc1ccc(/C=N/N2CCN(C3c4ccccc4-c4ccccc43)CC2)cc1O,–,"inconclusive: 39.8 µM [inhibitor, single point]"
CSc1cccc(NC(=O)OC2CCCCCCCCCCC2)c1,–,"inconclusive: 31.6 µM [inhibitor, single point]"
Cc1ccccc1C(=O)Nc1ccc(OCc2cc(=O)n3ccccc3n2)cc1,inactive: -9.97%,–
Cc1ccnc(SCc2cc(=O)c(OC(=O)c3ccc(Br)o3)co2)n1,inactive: -1.54%,–

SMILES,"activity, negative = inhibition",Potency
CC(=O)c1cccc(Nc2nc(-c3cccc(C)c3)nc3ccccc23)c1,–,active: 7.08 µM
O=C(NNC(=O)c1cc2cc(OC(F)(F)F)ccc2[nH]1)c1ccc(Cl)cc1,–,"inconclusive: 44.7 µM [inhibitor, single point]"
Cc1ccc(NC(=O)CSc2ccc(-c3ccco3)nn2)c(C)c1,inactive: 1.55%,–
Cc1ccc(CCNC(=O)c2c[nH]c3ccc(S(=O)(=O)Nc4ccc(C)cc4C)cc3c2=O)cc1,–,active: 4.47 µM
CCOC(=O)c1sc(NNC(=O)c2ccc(C)cc2)nc1C,inactive: 13.8%,–
COc1ccc(N2CCN(c3nc(=S)n(-c4ccccc4)c(C)c3C(C)=O)CC2)cc1,–,"inconclusive: 20 µM [inhibitor, single point]"
CCN1CCN(c2ccc(NC(=O)c3ccc4c(c3)[nH]c(=O)n4Cc3ccc(OC)cc3)cc2)CC1,–,"inconclusive: 35.5 µM [activator, partial curve, poor fit]"
CCSc1oc(-c2ccco2)nc1S(=O)(=O)c1ccc(Br)cc1,inactive: -8.37%,–
CC(=O)c1ccc(Nc2nc3c(S(=O)(=O)c4ccccc4)nnn3c3ccc(Cl)cc23)cc1,–,"inconclusive: 22.4 µM [inhibitor, single point]"
Cc1ccc2nc(-c3ccc(O)cc3)c(Nc3ccc(Cl)cc3)n2c1,–,"inconclusive: 35.5 µM [inhibitor, single point]"
Cc1ccccc1N1CCN(Cc2c[nH]c3ccccc23)CC1,inactive: 5.64%,–
COc1cccc(N2CCN(c3ncnc4c3[nH]c3ccccc34)CC2C)c1 (stereo unspecified),–,"inconclusive: 25.1 µM [activator, single point]"
S=C(Nc1ccc(Cl)c(Cl)c1)NC1CCN(Cc2ccccc2)CC1,–,active: 25.1 µM
CSS(=O)(=O)c1cccc2cccnc12,–,"inconclusive: 3.98 µM [inhibitor, partial curve]"
Cc1cc(Br)ccc1NC(=O)Cn1cc(S(=O)(=O)N2CCN(c3ccccc3F)CC2)c2ccccc2c1=O,–,"inconclusive: 25.1 µM [inhibitor, partial curve, poor fit]"
O=C(COC(=O)c1cccc(S(=O)(=O)N2CCOCC2)c1)Nc1ncc(C(F)(F)F)cc1Cl,inactive: 1.53%,–
Cc1cccc(N/N=C/c2ccc(O)c(O)c2O)c1,–,active: 15.8 µM
C#CCSc1nc(-c2ccccc2)cc(-c2ccccc2)c1C#N,–,"inconclusive: 25.1 µM [inhibitor, partial curve]"
COc1cccc(CNCc2ccc(C(=O)O)cc2)c1OC,inactive: 3.14%,–
C#C[C@]1(O)CC[C@H]2[C@@H]3CCc4cc(OC5CCCC5)ccc4[C@H]3CC[C@@]21C,–,"inconclusive: 39.8 µM [activator, single point]"
CN(C)S(=O)(=O)Oc1cccc(C(=O)Nc2cccc(Cl)c2)c1,–,"inconclusive: 17.8 µM [inhibitor, single point]"
Cc1cc2cc(CNC(=O)c3ccc(S(=O)(=O)N4CCOCC4)cc3)ccc2n1C,–,"inconclusive: 44.7 µM [inhibitor, single point]"

# From PubChem BioAssay AID1468 (National Center for Advancing Translational Sciences (NCATS), 2008)
